Measured values as given in PubChem BioAssay AID686978 (National Center for Advancing Translational Sciences (NCATS), 2013).
Hit rate of the full screen: of about 420,000 compounds, about 64,000 (15%) were called active. The shares of active, inactive and inconclusive entries below differ from those in the screen. Calls follow the shape of the dose curve; as a rule, active = well fitted inhibition curve with a large enough effect; inconclusive = small, poorly fitted or top-dose-only effect; inactive = flat fitted curve, though single readings scatter. Potencies of inconclusive entries are left out as doubtful fits.

Experiment: qHTS for Inhibitors of human tyrosyl-DNA phosphodiesterase 1 (TDP1): qHTS in cells in absence of CPT; also: nearly all actives have a fitted effect of over 55% in size
Conditions: DT40 Tdp1-/- hTDP1 cells, no CPT, ATP luminescence, 48 h; activity change, negative = growth inhibition: at 46.2 µM (top of the series) unless noted
Procedure, shortened: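 DT40 Tdp1-/-;hTDP1 cells, no CPT (DMSO vehicle only), 400 cells/well; compounds pin-transferred; ≥48 hr, 37 °C; CellTiter-Glo 30 min RT dark, luminescence read.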
% is scaled to controls: 0 for no effect and ±100 for the full control effect; potency is read from the fitted curve at half-maximal effect; tags tell the direction and shape of the fitted curve.

Row | Structure (SMILES) | Potency | activity change, negative = growth inhibition
1 | Cc1cc2c(s1)NC(=O)CN=C2c1cccs1 | inconclusive [inhibitor, single point] | 
2 | COC(=O)C1=C(c2c(C)noc2C)C[C@@H]2CC[C@H]1N2C(=O)NCCOc1ccccc1Cl |  | inactive: -13.3%
3 | O=S(=O)(c1ccc(Cl)cc1)N1CCCC1c1cccnc1 (stereo not given) |  | inactive: -11.6%
4 | O[C@H]1[C@H]2[C@H](O)CCCN2C[C@H]1O |  | inactive: -15.9%
5 | COc1ccc(C2=NOC(COC(=O)c3ccc4ccccc4n3)C2)cc1 (stereo not given) | inconclusive [inhibitor, partial curve] | 
6 | Cc1ccsc1C(=O)C1CCCN(Cc2sc(N(C)C)nc2Cl)C1 (stereo not given) | inconclusive [inhibitor, single point] | 
7 | COc1cc([C@@H]2c3cc4c(cc3[C@H](O)[C@H]3COC(=O)[C@@H]23)OCO4)cc(OC)c1OC | active: 0.0251 µM | 
8 | C=C(CC1CC(O)[C@]2(C)OC3CC4OC5C[C@]6(C)O[C@]7(C)CCC8OC9C[C@]%10(C)OC%11C(C)=CC(=O)OC%11CC%10OC9C[C@@H](C)C8OC7CC6O[C@]5(C)C/C=C\C4OC3CC2O1)C(=O)O (stereo not given in full) | inconclusive [inhibitor, single point] | 
9 | O=c1c2ccccc2nc(/C=C/c2ccco2)n1-c1ccccc1O | inconclusive [inhibitor, single point] | 
10 | C/C(=N\NC(=O)c1ccccc1)c1c(O)n(Cc2ccccc2)c(=O)[nH]c1=O |  | inactive: -10.6%
11 | O=P(O)(O)Cc1ccccc1OP(=O)(c1ccccc1)c1ccccc1 | inconclusive [inhibitor, partial curve] | 
12 | Cc1ccsc1C(=O)C1CCCN(Cc2cnc(N3CCOCC3)s2)C1 (stereo not given) | inconclusive [inhibitor, single point] | 
13 | CCCCCCCCCCCCOCCOCCOCCOCCOCCOCCOCCOCCOCCO | active: 6.68 µM | 
14 | O=C(c1cc2c(s1)-c1ccccc1OC2)N1CCC2(CC1)OCCO2 | inconclusive [inhibitor, single point] | 
15 | CC(=O)N1CCN(c2ccc(OCC3CO[C@@](Cn4ccnc4)(c4ccc(Cl)cc4Cl)O3)cc2)CC1 (stereo not given in full) | active: 6.51 µM | 
16 | O=C1CN(O)C(c2ccccc2)=c2cc(Br)ccc2=N1 |  | inactive: -29.9%
17 | C=CCn1c(O)c(N=Nc2c(C)n(C)n(-c3ccccc3)c2=O)c(=O)[nH]c1=S | active: 9.2 µM | 
18 | O=c1ccc2c(O)c3ccoc3cc2o1 | inconclusive [inhibitor, partial curve] | 
19 | CC12CCC3C(CCC4CC(=O)CCC43C)C1CC(=NO)C2=O (stereo not given) |  | inconclusive: -32% [inhibitor]
20 | CC(=NCCCN1CCCCC1)c1c(O)n(Cc2ccccc2)c(=O)[nH]c1=O |  | inactive: -15.6%
21 | CC(=NCc1ccc2c(c1)OCO2)c1c(O)n(Cc2ccccc2)c(=O)[nH]c1=O | inconclusive [inhibitor, partial curve] | 
22 | Cc1nc2ccc(Cl)cc2c(=O)n1-c1cccc(Cl)c1 | inconclusive [inhibitor, single point] | 
23 | Cc1ccc(S(=O)(=O)N2CCCC(C(=O)N3CCC4(CC3)OCCO4)C2)cc1 (stereo not given) | inconclusive [inhibitor, partial curve] | 
24 | CSc1nc2ccccc2c(=O)n1-c1cccnc1 |  | inactive: -15.3%
25 | O=C(NC(=S)N1CC1)c1ccccc1 | inconclusive [inhibitor, single point] | 

Row | Structure (SMILES) | Potency | activity change, negative = growth inhibition
26 | O=C(/C=C/c1ccccc1)c1c(O)n(CCc2ccccc2)c(=O)[nH]c1=O | active: 2.59 µM | 
27 | Cc1ccccc1NC(=O)N1Cc2ccccc2-n2nncc2C1 |  | inactive: -17.4%
28 | CCC(=O)N1N=C(c2c(O)n(CCc3ccccc3)c(=O)[nH]c2=O)CC1c1ccc(OC)c(OC)c1 (stereo not given) | inconclusive [inhibitor, single point] | 
29 | C[C@@H]1CN([C@@H](C)CO)C(=O)c2c(c3ccccc3n2C)-c2ccccc2CO[C@H]1CN(C)S(=O)(=O)c1ccc(C#N)cc1 | inconclusive [inhibitor, single point] | 
30 | C[C@H](CO)N1C[C@H](C)[C@H](CN(C)C(=O)Oc2ccccc2)OCc2cnnn2CCCC1=O |  | inactive: 0.457%
31 | Cc1[nH]c2ccccc2c1CCN | inconclusive [inhibitor, single point] | 
32 | O=[N+]([O-])c1ccc(N2CCNCC2)c(Cl)c1 | inconclusive [inhibitor, partial curve] | 
33 | CC(C)N1CCN(Cc2cccc([N+](=O)[O-])c2)CC1 |  | inactive: -9.96%
34 | COc1ccc(OC)c(CC(C)N)c1 (stereo not given) |  | inactive: -15.7% [at 92.5 µM]
35 | CC(=O)Nc1cc(-c2ccc(C(=O)NC3CC3)cc2)cn2c(-c3ccc(F)c(Cl)c3)cnc12 | active: 14.6 µM | 
36 | COc1cc(Cn2c(N)c(C(=O)NCc3ccco3)c3nc4ccccc4nc32)cc(OC)c1OC | inconclusive [inhibitor, single point] | 
37 | CC(C(=O)OC1CC2CCC(C1)N2C)c1ccc(Br)cc1 (stereo not given) | active: 16.4 µM | 
38 | O=C1NC(=O)C(=Cc2ccc(-c3ccc(Cl)cc3)o2)C(=O)N1 | active: 8.2 µM | 
39 | CC(C)C[C@H]1CNC(=S)N1CC1CCN(CC2CCC(C(C)(C)C)CC2)CC1 (stereo not given in full) | active: 16.4 µM | 
40 | Cc1ccc2c(c1)C1CN(C)CCC1N2C(=O)c1cccs1 (stereo not given) |  | inactive: -0.658%
41 | COc1ccc(CC[n+]2cc(/N=C(\C)[O-])on2)cc1OC |  | inactive: -4.12%
42 | COC(=O)[C@]1(C)N[C@H](CN(C)S(=O)(=O)c2ccc(-c3ccccc3)cc2)[C@@H]2C(=O)N(Cc3ccccc3)C(=O)[C@@H]21 | inconclusive [inhibitor, single point] | 
43 | COC(=O)C1=C(c2ccc(-c3ccccc3)c(F)c2)C[C@@H]2CC[C@H]1N2C(=O)NCCOc1ccccc1 | active: 20.6 µM | 
44 | CC(Cc1ccccc1Sc1ccccc1O)N(C)C (stereo not given) | active: 11.6 µM | 
45 | COc1ccccc1OC(=O)c1ccc(C)c(S(=O)(=O)N2CCOCC2)c1 |  | inactive: -10.1%
46 | C=CCCC1(C2=CCCCC2)C(=O)NC(=O)NC1=O |  | inactive: -0.972%
47 | COC(=O)Nc1ccc(N=C(N)N[N+](=O)[O-])cc1 |  | inactive: -17.6%
48 | N[C@H](C(=O)O)c1cc(=O)[nH]o1 | inconclusive [inhibitor, partial curve, poor fit] | 
49 | CC(=O)N(C)C1=Nc2ccc(Cl)cc2C(c2ccccc2)=[N+]([O-])C1 | inconclusive [inhibitor, single point] | 
50 | CCCCCl |  | inactive: -2.09%

Row | Structure (SMILES) | Potency | activity change, negative = growth inhibition
51 | COc1cc(C2c3cc4c(cc3CC3COC(=O)C32)OCO4)cc(OC)c1O (stereo not given) | active: 0.291 µM | 
52 | CN1C(=S)CN=C(c2ccccc2)c2cc(Cl)ccc21 | active: 15 µM | 
53 | Clc1ccc(C2N3CCCN23)c(Cl)c1 (stereo not given) |  | inactive: -15%
54 | O=C1C=CC(=O)C2C1C1(Cl)C(Cl)=C(Cl)C2(Cl)C1(Cl)Cl (stereo not given) | inconclusive [inhibitor, single point] | 
55 | O=C(CCNS(=O)(=O)c1ccccc1)Nc1ccc(Cl)cc1C(=O)c1ccccc1 | inconclusive [inhibitor, single point] | 
56 | O=C(Nc1ccc(F)c([N+](=O)[O-])c1)N1C[C@H]2C[C@@H](C1)c1cccc(=O)n1C2 |  | inactive: 20.4%
57 | COC(=O)C1=C(c2ccc(F)cc2F)C[C@@H]2CC[C@H]1N2C(=O)NCCOc1ccc(OC)cc1 | inconclusive [inhibitor, single point] | 
58 | OC(CN1CCCCC1)c1c[nH]c2ccccc12 (stereo not given) |  | inactive: 3.81%
59 | Cc1ccc2c(c1)C1CN(C)CCC1N2C(=O)COc1ccc(N(C)C(=O)C(C)(C)C)cc1 (stereo not given) | active: 18.4 µM | 
60 | Clc1ccc(CNCCc2ccc3c(c2)OCO3)cc1 |  | inactive: -20.7%
61 | COC(=O)C1=C(c2cc3ccccc3o2)C[C@@H]2CC[C@H]1N2C(=O)N1CCCC1 | active: 16.4 µM | 
62 | O=C1NC(=O)C(=Cc2ccc(-c3ccccc3[N+](=O)[O-])o2)C(=O)N1 | active: 13 µM | 
63 | CC(C)(C)OC(=O)c1c(N)n(Cc2ccco2)c2nc3ccccc3nc12 | inconclusive [inhibitor, single point] | 
64 | Cc1cc(/C=C2\C(=O)NC(=O)N(C)C2=O)c(C)n1-c1ccc2c(c1)OCO2 |  | inconclusive: -33.1% [inhibitor]
65 | COc1cc(CN2CCCC(C(=O)c3sccc3C)C2)cc(Cl)c1O (stereo not given) | inconclusive [inhibitor, partial curve] | 
66 | NC(=O)[C@@H]1CCCN1C(=O)[C@H](Cc1ccccc1)NC(=O)[C@@H]1CCCN1C(=O)[C@@H](N)Cc1ccc(O)cc1 |  | inactive: 14.1% [at 4.12 µM]
67 | COc1cc(CC2(CCc3ccncc3)C(=O)NC(=O)NC2=O)cc(OC)c1OC | inconclusive [inhibitor, partial curve] | 
68 | COC(=O)C1=C(c2ccc(F)cc2F)C[C@@H]2CC[C@H]1N2C(=O)NCCOc1ccccc1 | inconclusive [inhibitor, partial curve] | 
69 | Cc1cc(C)c(-n2c(O)c(/C=N/N3CCCCC3c3cccnc3)c(=O)[nH]c2=O)c(C)c1 (stereo not given) |  | inactive: -11.6%
70 | c1ccc(C2CN3CCC2CC3)cc1 (stereo not given) |  | inactive: -4.38%
71 | CCN(c1ccccc1)S(=O)(=O)c1ccc(C(=O)NCC(c2ccccc2OC)N2CCCC2)cc1 (stereo not given) | inconclusive [inhibitor, single point] | 
72 | Cc1cccc(NC(=O)C(C)N2CC=C(c3ccccc3)CC2)c1 (stereo not given) | inconclusive [inhibitor, single point] | 
73 | c1ccc(NC2=Nc3ccccc3CC2)cc1 | inconclusive [inhibitor, single point] | 
74 | O=C(c1ccncc1)N1CCC[C@@]2(CCN(Cc3nccs3)C2)C1 |  | inactive: -22.8%
75 | COc1ccccc1CC(=O)N1CCN(CCc2ccccc2)CC1 | inconclusive [inhibitor, partial curve] | 
